Results taken from the supplement of paper PMC11417369.
This is one part of the list.

Test system: PF3D7_0420300 AP2 domain 1 (GST-tagged)
Experiment: gcPBM binding intensity (ln(normalized median fluorescence intensity)); higher = stronger DNA binding
Outline: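 An Agilent 4 × 180k array carrying primer-extended double-stranded 36-bp intergenic genomic probes and negative controls received GST-tagged P. falciparum DNA-binding domains expressed in E. coli, about 25 μg on average, for 1 h. The binding buffer contained 1× PBS, 1% milk, 0.2 mg/ml BSA, 0.5% salmon testes DNA and 0.03% Triton X-100. Binding intensity is the top Masliner-normalised natural-log median intensity across replicate spots of either probe orientation, read after Alexa488 anti-GST antibody staining and a 488 nm scan.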

Sequence	gcPBM binding intensity (ln)
TATATATAATTATAAGAACACACATATATATATATA [CACACA_site8786]	9.45
AATGATACTTAGGGGCATGTCTCTGGGGGCATAACC [CACACA_negctrl_site591]	9.45
ATATATTTCTGTCAAGCACACATAATATTAATATAT [CACACA_site7993]	9.35
CATATTATATTTTCATGTACACATAACATATTTATA [XGTACX_site4787]	9.37
GTTATAAACAAAATAAATATATGAATATATAATAAT [XGTACX_negctrl_site96]	9.28
ATATAGTAAATGTTCACACATACAAATATATATATA [CACACA_site5518]	9.33
AAGTTTTCTTAAAGCTGTACTTTTTAAAAATAAAAT [XGTACX_site7716]	8.73
TTAAAAATATTATGTACACACATTTTAGATATTTGT [CACACA_site1846]	9.45
TAAATATATATATATTGTACAAAACAAATGTGAATT [XGTACX_site696]	9.45
TCCTAATATTTGTCAAATTTCAAAATAAATAAAATG [XGTACX_negctrl_site540]	8.84
TAATTAAAATCATATACACACCCATATATATATATA [CACACA_site8524]	9.45
TAAAAGGGGATATATGAACACACAAAAAAAAAATAT [CACACA_site8940]	9.66
TATATATATATGTACACACACACATATAAATAAATA [CACACA_site443]	9.9
CATATTTTTTCTTAAACACACACATATATATATATA [CACACA_site8920]	9.61
TTAAAAAAAAAAAAAAGTACATAAGTATATATAATA [XGTACX_site4295]	9.17
ATATTAAGTTTTATTACACACTCTCAATTTTTATTT [CACACA_site4206]	9.67
TAAATGTTTCTCAAAAGTACACATGTGATATTTCTT [XGTACX_site2065]	9.2
TAATTTCTTATGTATTGTACAAATAATATATTATTT [XGTACX_site3066]	9.28
ATTCAAAATAATCACAGTACACATGAGATTATCTTT [XGTACX_site2197]	9.17
TTAATATGGAAATGTTGTACATTTCTTGAAGCATTC [XGTACX_site525]	9.03
ACTTCATAAACATTTTGTACGTATGTATCTTTTTAT [XGTACX_site7012]	9.49
TTATTGAAAAACATAATATCTAAGAGGGTAATATAT [GTGCAC_negctrl_site599]	9.33
TGGAAACAAAAACACACACACAAAAAAAAAAAAAAA [CACACA_site3209]	9.68
TGTATTATTAATATTTGTACGTAATAATAAAAACAT [XGTACX_site3716]	9.26
